The values that follow come from the RNAGym collection of RNA variant scans (doi:10.1093/nar/gkz1192).

The source gives no read counts; variants with many changes may rest on few reads.

To fix the notation:
B1: CPEB3 Ribozyme (parent)
chain: UAACAGGGGGCCACAGCAGAAGCGUUCACGUCGCAGCCCCUGUCAGAUUCUGGUGAAUCUGCGAAUUCUGCUGUAUAUCUC

The variants in the series derive from B1. Nature of the series: self-cleavage, relative activity (ratio to wild type); higher = more cleavage; in vitro, sequencing. A digest of the protocol:
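For each CPEB3 ribozyme variant, relative activity is its cleaved/total read fraction divided by the unmutated ribozyme's. Barcoded error-prone PCR libraries were transcribed by T7 RNA polymerase (5 hours, 37°C) and held in DNase I for 15 min before an EDTA stop, with cleavage occurring throughout. Template-switching reverse transcription and Illumina sequencing were used to read the RNAs. A 5-read minimum applied, and results are the mean of three batches.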
As for A13U A20U U48C, the self-cleavage was determined as 0.17.

As for A13G U51A U67C, the self-cleavage is 0.23.

Consider A13G U51G A65G, for which the self-cleavage came to 0.62.

Turning to A13U A21G U58C, the self-cleavage turned out to be 0.1.

In the case of A13U A15U U60A, the self-cleavage came to 0.18.

A13U A18G U48C U74C: the self-cleavage was determined as 0.18.

On to A13U A15G U69A U76C, for which the self-cleavage was determined as 0.31.

As for A13U A20G C38U A45G U49C A77U, the self-cleavage stood at 0.08.

In the case of A13U A15G U26A, the self-cleavage amounted to 0.74.

With A13U A21U U31C G73A, the self-cleavage stood at 0.33.

As for A13U A18U A20G A45U U58C U66C, the self-cleavage is 0.07.

Regarding A13U A20G A56G U60A A77G, the self-cleavage was determined as 0.47.

Regarding A13U A28C U31C U72A, the self-cleavage came out at 0.1.

Consider A13U A35G G42A G55A, for which the self-cleavage worked out at 0.32.

A13G U72C U78G: the self-cleavage was 0.68.

Turning to A13U A28U C34G U41C, the self-cleavage was 0.1.

For A13U A15G G24C U26A G33U U67C U76A, the self-cleavage came to 0.05.

Take A13U A15U A21G U66C A75G: the self-cleavage was 0.39.

Regarding A13U A21G U41C A64G C79U, the self-cleavage worked out at 0.18.

Take A13G U60C A64G: the self-cleavage is 0.17.

On to A13U A20G U41C U43A U51C A77U, for which the self-cleavage stood at 0.67.

As for A13G U48A U60C, the self-cleavage was 0.14.

A13G U69C U74A: the self-cleavage amounted to 0.32.

As to A13U A28G U43A C81A, the self-cleavage is 0.89.

Take A13G U69A U74G U78C: the self-cleavage came out at 0.41.

With A13G U67C U72C, the self-cleavage is 0.36.

On to A13U A28G A65G U67A, for which the self-cleavage worked out at 0.14.

With A13U A20G U60A U72A U78C, the self-cleavage turned out to be 0.19.

For the variant A13U A15G A56G U72C, the self-cleavage is 1.17.

Turning to A13U A15U A28G U49C U54G, the self-cleavage is 0.17.

Turning to A13U A15G U41C, the self-cleavage came out at 0.8.

Regarding A13U A21U A35U C39A, the self-cleavage is 0.18.

As to A13U A28G U54C U58A U78C, the self-cleavage was found to be 0.12.

Regarding A13G U48C A65G U72C, the self-cleavage amounted to 0.13.

Take A13U A18G U43C U78C: the self-cleavage came out at 0.14.

With A13U A21U U26C, the self-cleavage turned out to be 0.31.

As to A13G U43C U49C U66A, the self-cleavage turned out to be 0.08.

Regarding A13U A20G U76A, the self-cleavage worked out at 1.02.

In the case of A13U A21G A35U U48C A57G A64G, the self-cleavage came out at 0.09.

A13U A21U U41C U43C U69C U78C: the self-cleavage is 0.08.

Take A13G U51C A56U: the self-cleavage was 0.45.

Take A13U A20U U49A G73U U80A: the self-cleavage was 0.54.

Take A13U A18G A20U A45C U72A: the self-cleavage is 0.08.

Take A13U A18U U54A: the self-cleavage is 0.43.

In the case of A13U A18G U43A A57G, the self-cleavage turned out to be 0.56.

A13U A15U C17U G24A: the self-cleavage amounted to 0.29.

For the variant A13U A18U A77U, the self-cleavage turned out to be 0.18.

Regarding A13U A18G U41A U51A U60A A65C U78A, the self-cleavage was 0.06.

For the variant A13U A18G U54A, the self-cleavage amounted to 0.94.

On to A13U A20C G22U U43C, for which the self-cleavage is 0.06.

As to A13U A21G U51A C62U, the self-cleavage is 0.14.

In the case of A13U A21G U31A C40G U49C U54C, the self-cleavage is 0.08.

Consider A13U A21G U31C U58A A65U U74A U76G, for which the self-cleavage is 0.04.

As for A13U A21G A45G A64G A65G, the self-cleavage came to 0.06.

For A13U A15G A20G G36C U41A A65G A75G, the self-cleavage worked out at 0.03.

On to A13U A21G A64G, for which the self-cleavage was 0.26.

In the case of A13U A15G A20U G24C C38U, the self-cleavage was 0.25.

With A13U A15U A56G A64U U78C U80A, the self-cleavage was determined as 0.12.

For A13U A18U C37U U41C U67G, the self-cleavage amounted to 0.13.

For the variant A13G U48C U49G, the self-cleavage came to 0.07.

For the variant A13U A20G G52A U58C, the self-cleavage was 0.73.

Take A13G U51G G53A U72C: the self-cleavage stood at 1.

Take A13U A15U C37A A64U U67A U72C: the self-cleavage came out at 0.08.

Consider A13U A18U A20C A75U, for which the self-cleavage worked out at 0.4.

Turning to A13G U72A A77G U78C, the self-cleavage is 0.72.

For A13U A18U A28C, the self-cleavage turned out to be 0.15.

Take A13U A18G A45G A65G: the self-cleavage is 0.31.

A13U A18G A35G U58A U72C: the self-cleavage was 0.16.

Turning to A13U A20G C27A U48C, the self-cleavage was found to be 0.08.

For the variant A13U A20G U26C C29A A64G, the self-cleavage was 0.18.

For A13U A28C U60A U72A U76A, the self-cleavage was found to be 0.1.

Turning to A13U A20G C23U C40U U72A A77G, the self-cleavage was 0.05.

Consider A13U A28U A35G U41C U54G G55A U69A, for which the self-cleavage was 0.51.

For the variant A13U A21G U25A C38U U72A, the self-cleavage worked out at 0.04.

For the variant A13G U49A U74A, the self-cleavage came out at 0.77.

In the case of A13U A18U C27G G33A U48C, the self-cleavage was determined as 0.04.

Consider A13U A20G U25C, for which the self-cleavage is 0.21.

Take A13U A15U A21G U51A A57G: the self-cleavage was 0.2.

A13U A21G U25A U41A: the self-cleavage worked out at 0.12.

With A13U A18C U25G, the self-cleavage came out at 0.34.

As to A13U A21G G33A U67G, the self-cleavage amounted to 0.05.

In the case of A13G U51C G53A, the self-cleavage was 1.13.

As to A13U A20G U26C A57G U80C, the self-cleavage is 0.36.

Take A13U A18C A35G G52A U78A: the self-cleavage was 0.88.
